Results reported in the supplement of paper PMC4967469.
The IC50 comes from the fitted curve, where viability falls to half of the control; a fit beyond the top or the lowest dose is shown as a bound at that dose. AUC sums up the same curve from the lowest dose to the 256-fold higher top dose; values near 1 show little effect.

Compound: N#CC[C@H](C1CCCC1)n1cc(-c2ncnc3[nH]ccc23)cn1 [Ruxolitinib]
Assay: Viability of human cancer cell lines after 72 h of drug (GDSC screen)
Experimental: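 Human cancer cell lines in 384-well plates, medium with 10% serum, drug for 72 h over a 256-fold dose range (nine 2-fold or five 4-fold steps up to the top dose). Adherent lines were fixed and stained with the nucleic acid dye Syto60, suspension lines read with resazurin; signal relative to control wells, capped at 0 and 100%. One two-parameter sigmoid per drug and line, fitted in a mixed model over all curves with the slope shared within a line.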

## MLMA (hairy cell leukaemia, semi-adherent, top dose 5.24 µM)
  AUC: 0.916
  IC50: > 5.24 µM

## MMAC-SF (melanoma, adherent, top dose 5.24 µM)
  AUC: 0.987
  IC50: > 5.24 µM

## MN-60 (B-cell leukaemia, suspension, top dose 5.24 µM)
  AUC: 0.986
  IC50: > 5.24 µM

## MOG-G-CCM (glioma, adherent, top dose 5.24 µM)
  AUC: 0.932
  IC50: > 5.24 µM

## MOG-G-UVW (glioma, adherent, top dose 5.24 µM)
  AUC: 0.94
  IC50: > 5.24 µM

## MOLP-8 (myeloma, suspension, top dose 5.24 µM)
  AUC: 0.961
  IC50: > 5.24 µM

## MOLT-4 (lymphoblastic leukaemia, suspension, top dose 5.24 µM)
  AUC: 0.969
  IC50: > 5.24 µM

## MOLT-13 (T-cell lymphoblastic leukaemia, suspension, top dose 5.24 µM)
  AUC: 0.989
  IC50: > 5.24 µM

## MONO-MAC-6 (acute myeloid leukaemia, suspension, top dose 5.24 µM)
  AUC: 0.911
  IC50: > 5.24 µM

## MPP-89 (mesothelioma, adherent, top dose 5.24 µM)
  AUC: 0.981
  IC50: > 5.24 µM

## MRK-nu-1 (breast, suspension, top dose 5.24 µM)
  AUC: 0.989
  IC50: > 5.24 µM

## MS751 (cervix, adherent, top dose 5.24 µM)
  AUC: 0.99
  IC50: > 5.24 µM

## MS-1 (small cell lung carcinoma, suspension, top dose 5.24 µM)
  AUC: 0.991
  IC50: > 5.24 µM

## MSTO-211H (mesothelioma, adherent, top dose 5.24 µM)
  AUC: 0.991
  IC50: > 5.24 µM

## MY-M12 (leukaemia, suspension, top dose 5.24 µM)
  AUC: 0.964
  IC50: > 5.24 µM

## MZ1-PC (pancreas, adherent, top dose 5.24 µM)
  AUC: 0.979
  IC50: > 5.24 µM

## MZ7-mel (melanoma, adherent, top dose 5.24 µM)
  AUC: 0.986
  IC50: > 5.24 µM

## Mo-T (hairy cell leukaemia, suspension, top dose 5.24 µM)
  AUC: 0.98
  IC50: > 5.24 µM

## NALM-6 (B-cell leukaemia, suspension, top dose 5.24 µM)
  AUC: 0.975
  IC50: > 5.24 µM

## NAMALWA (Burkitt lymphoma, suspension, top dose 5.24 µM)
  AUC: 0.986
  IC50: > 5.24 µM

## NB5 (neuroblastoma, adherent, top dose 5.24 µM)
  AUC: 0.986
  IC50: > 5.24 µM

## NB6 (neuroblastoma, adherent, top dose 5.24 µM)
  AUC: 0.984
  IC50: > 5.24 µM

## NB7 (neuroblastoma, adherent, top dose 5.24 µM)
  AUC: 0.985
  IC50: > 5.24 µM

## NB10 (neuroblastoma, adherent, top dose 5.24 µM)
  AUC: 0.98
  IC50: > 5.24 µM

## NB12 (neuroblastoma, adherent, top dose 5.24 µM)
  AUC: 0.975
  IC50: > 5.24 µM

## NB13 (neuroblastoma, adherent, top dose 5.24 µM)
  AUC: 0.985
  IC50: > 5.24 µM

## NB14 (neuroblastoma, adherent, top dose 5.24 µM)
  AUC: 0.988
  IC50: > 5.24 µM

## NB17 (neuroblastoma, adherent, top dose 5.24 µM)
  AUC: 0.983
  IC50: > 5.24 µM

## NB69 (neuroblastoma, adherent, top dose 5.24 µM)
  AUC: 0.98
  IC50: > 5.24 µM

## NB(TU)1-10 (neuroblastoma, adherent, top dose 5.24 µM)
  AUC: 0.993
  IC50: > 5.24 µM

## NB-4 (acute myeloid leukaemia, suspension, top dose 5.24 µM)
  AUC: 0.935
  IC50: > 5.24 µM

## NCC021 (kidney, adherent, top dose 5.24 µM)
  AUC: 0.985
  IC50: > 5.24 µM
